In the antibiotic and cytotoxicity screens of Wong et al. (2023) one finds cytotoxicity call and growth inhibition call data, which are given here for 27 molecules.

The other results are listed elsewhere or left out.

For experiment [1], the system named is HSkMC (human skeletal muscle cells). Nature of the experiment: cytotoxicity call (relative viability < 0.9). The following applies: 10 µM.
In experiment [2] the test system is HepG2. Nature of the experiment: cytotoxicity call (relative viability < 0.9). Particulars: 10 µM.
In experiment [3] the test system is S. aureus RN4220. As to the kind of experiment: growth inhibition call (relative growth <= 0.2). The following applies: 50 µM.

For the molecule `C[C@H](CO)N1C[C@H](C)[C@@H](CN(C)S(=O)(=O)c2ccc(Cl)cc2)Oc2c(NC(=O)c3ccc(-c4nccs4)cc3)cccc2C1=O`, the cytotoxicity call in experiment [1] and in experiment [2] was “inactive” each time. Also, the growth inhibition call in experiment [3] was “inactive”.

On to `C[C@H](CO)N1C[C@H](C)[C@@H](CN(C)C(=O)Nc2cccc(F)c2)Oc2cc(C#CC3(O)CCCC3)ccc2S1(=O)=O`, for which the cytotoxicity call in experiment [1] and in experiment [2] was “inactive” throughout. In addition, in experiment [3], the growth inhibition call was “inactive”.

Take `COc1ccc(S(=O)(=O)Nc2cccc3c2O[C@@H](CN(C)Cc2ccncc2)[C@H](C)CN([C@@H](C)CO)C3=O)cc1`: the cytotoxicity call in experiment [1] and in experiment [2] was “inactive” in each case. In addition, the growth inhibition call in experiment [3] is “inactive”.

For the molecule `Cc1ccc(S(=O)(=O)N(C)C[C@@H]2Oc3ccc(NC(=O)NC(C)C)cc3C(=O)N([C@@H](C)CO)C[C@@H]2C)cc1`, the cytotoxicity call in experiment [1] and in experiment [2] was “inactive” throughout. The growth inhibition call in experiment [3] is “inactive”.

On to `COc1c(O)cc2c(c1O)[C@@H]1O[C@H](CO)[C@@H](O)[C@H](O)[C@H]1OC2=O`, for which the cytotoxicity call in experiment [1] and in experiment [2] was “inactive” throughout. The growth inhibition call in experiment [3] is “inactive”.

For the molecule `CO[C@@]1(CNS(C)(=O)=O)CCSC1`, the cytotoxicity call in experiment [1] and in experiment [2] was “inactive” each time. Besides, in experiment [3], the growth inhibition call was “inactive”.

With `C[C@@H]1CN([C@@H](C)CO)C(=O)c2ccccc2-c2ccccc2CO[C@H]1CN(C)S(=O)(=O)c1ccc(C(F)(F)F)cc1`, the cytotoxicity call in experiment [1] and in experiment [2] was “inactive” each time. In addition, the growth inhibition call in experiment [3] was “inactive”.

Take `CN(C)CCCNC(=O)C[C@@H]1CC[C@H]2[C@@H](COc3ccc(NS(C)(=O)=O)cc3C(=O)N2C)O1`: the cytotoxicity call in experiment [1] and in experiment [2] was “inactive” each time. In experiment [3], the growth inhibition call is “inactive”.

Consider `Cc1cc(C(=O)Nc2cccc3c2O[C@H](CN(C)Cc2ccncc2)[C@H](C)CN([C@H](C)CO)C3=O)n(C)n1`, for which the cytotoxicity call in experiment [1] and in experiment [2] was “inactive” in each case. Also, the growth inhibition call in experiment [3] is “inactive”.

With `CSc1nn(C)c2cnn(C)c(=O)c12`, the cytotoxicity call in experiment [1] and in experiment [2] was “inactive” in each case. In experiment [3], the growth inhibition call is “inactive”.

In the case of `C[C@H](CO)N1C[C@H](C)[C@@H](CN(C)Cc2ccc(C(=O)Nc3ccccc3N)cc2)Oc2ccc(NC(=O)Nc3ccccc3)cc2CC1=O`, the cytotoxicity call in experiment [1] and in experiment [2] was “inactive” in each case. Moreover, the growth inhibition call in experiment [3] is “inactive”.

For the molecule `C[C@@H]1CN([C@H](C)CO)C(=O)c2cccc(NC(=O)c3ccc(-c4nccs4)cc3)c2O[C@@H]1CN(C)C(=O)Nc1ccccc1`, the cytotoxicity call in experiment [1] and in experiment [2] was “inactive” in each case. Moreover, the growth inhibition call in experiment [3] was “inactive”.

Consider `C[C@@H]1CCCCO[C@H](CN(C)S(=O)(=O)c2ccccc2)[C@@H](C)CN([C@H](C)CO)C(=O)c2cc(NS(C)(=O)=O)ccc2O1`, for which the cytotoxicity call in experiment [1] and in experiment [2] was “inactive” each time. Besides, in experiment [3], the growth inhibition call is “inactive”.

In the case of `C[C@H](CO)N1C[C@H](C)[C@H](CN(C)CC2CCCCC2)OCCCC[C@H](C)Oc2ccc(NC(=O)c3ccncc3)cc2C1=O`, the cytotoxicity call in experiment [1] and in experiment [2] was “inactive” each time. Moreover, in experiment [3], the growth inhibition call was “inactive”.

As for `C[C@@H]1CCCCO[C@@H](CN(C)S(=O)(=O)c2ccc(Cl)cc2)[C@H](C)CN([C@@H](C)CO)C(=O)c2cc(NC(=O)Nc3cccc4ccccc34)ccc2O1`, the cytotoxicity call in experiment [1] and in experiment [2] was “inactive” throughout. Besides, the growth inhibition call in experiment [3] is “inactive”.

For `C[C@H](CO)N1C[C@H](C)[C@@H](CN(C)C(=O)Nc2ccc(F)cc2)Oc2c(NC(=O)Nc3cccc4ccccc34)cccc2C1=O`, the cytotoxicity call in experiment [1] and in experiment [2] was “inactive” each time. Also, the growth inhibition call in experiment [3] is “inactive”.

Regarding `C[C@@H]1CCCCO[C@H](CN(C)C(=O)c2ccccc2)[C@H](C)CN([C@@H](C)CO)C(=O)c2cc(NC(=O)Nc3ccc4c(c3)OCO4)ccc2O1`, the cytotoxicity call in experiment [1] and in experiment [2] was “inactive” in each case. Further, the growth inhibition call in experiment [3] is “inactive”.

Consider `Cc1ccc(S(=O)(=O)Nc2ccc3c(c2)C(=O)N([C@@H](C)CO)C[C@@H](C)[C@@H](CN(C)Cc2ccc(Cl)c(Cl)c2)OCCCC[C@@H](C)O3)cc1`, for which the cytotoxicity call in experiment [1] and in experiment [2] was “active” each time. Further, in experiment [3], the growth inhibition call is “inactive”.

Consider `C[C@@H]1CN([C@H](C)CO)C(=O)c2cc(NC(=O)Nc3ccccc3)ccc2O[C@H]1CN(C)Cc1ccc(Cl)c(Cl)c1`, for which the cytotoxicity call in experiment [1] and in experiment [2] was “inactive” throughout. In experiment [3], the growth inhibition call was “inactive”.

For the molecule `C[C@@H]1CN([C@H](C)CO)S(=O)(=O)c2ccc(-c3ccc(F)cc3)cc2O[C@H]1CN(C)C(=O)C1CCOCC1`, the cytotoxicity call in experiment [1] and in experiment [2] was “inactive” throughout. Moreover, the growth inhibition call in experiment [3] is “inactive”.

Turning to `C[C@@H]1CN([C@@H](C)CO)C(=O)Cc2cc(NC(=O)CCCN(C)C)ccc2O[C@H]1CN(C)S(C)(=O)=O`, the cytotoxicity call in experiment [1] and in experiment [2] was “inactive” throughout. Moreover, in experiment [3], the growth inhibition call is “inactive”.

As to `CN(C)[C@H]1CS(=O)(=O)C[C@@H]1N(C)C`, the cytotoxicity call in experiment [1] and in experiment [2] was “inactive” each time. Moreover, the growth inhibition call in experiment [3] is “inactive”.

As for `O=C(O)CCCCCCC(=O)Nc1ccc([C@H]2O[C@@H](CSc3nc(-c4ccccc4)c(-c4ccccc4)o3)C[C@H](c3ccc([N+](=O)[O-])cc3)O2)cc1`, the cytotoxicity call in experiment [1] and in experiment [2] was “inactive” throughout. The growth inhibition call in experiment [3] was “inactive”.

In the case of `Cc1cnccc1CN1C[C@H](C(=O)O)CC1=O`, the cytotoxicity call in experiment [1] and in experiment [2] was “inactive” each time. Further, the growth inhibition call in experiment [3] is “inactive”.

Take `COC(=O)[C@@H](N)Cc1ccc(-n2cc(CCC(=O)NO)nn2)cc1`: in experiment [1], the cytotoxicity call is “inactive”. In addition, in experiment [2], the cytotoxicity call was “active”. In experiment [3], the growth inhibition call is “active”.

With `COc1ccc(S(=O)(=O)N(C)C[C@@H]2Oc3ccc(NC(=O)C4CC4)cc3CC(=O)N([C@@H](C)CO)C[C@H]2C)cc1`, the cytotoxicity call in experiment [1] and in experiment [2] was “inactive” throughout. Besides, the growth inhibition call in experiment [3] was “inactive”.

In the case of `COC(=O)C1=CO[C@@H](O[C@@H]2O[C@H](CO)[C@@H](O)[C@H](O)[C@H]2O)[C@@H]2[C@@](C)(O)[C@@H](OC(=O)/C=C/c3ccc(OC)c(OC)c3)C[C@]12O`, the cytotoxicity call in experiment [1] and in experiment [2] was “inactive” throughout. For the same molecule, in experiment [3], the growth inhibition call is “inactive”.
